This experiment deals with Mtb GroEL2 (Rv0440, hsp65), M-PFC bait fusion (Mycobacterium tuberculosis H37Rv) (UniProt P9WPE7). Description: split reporter.

Amino acid sequences for entries named in this document (tags omitted).
UniProt P9WPE7: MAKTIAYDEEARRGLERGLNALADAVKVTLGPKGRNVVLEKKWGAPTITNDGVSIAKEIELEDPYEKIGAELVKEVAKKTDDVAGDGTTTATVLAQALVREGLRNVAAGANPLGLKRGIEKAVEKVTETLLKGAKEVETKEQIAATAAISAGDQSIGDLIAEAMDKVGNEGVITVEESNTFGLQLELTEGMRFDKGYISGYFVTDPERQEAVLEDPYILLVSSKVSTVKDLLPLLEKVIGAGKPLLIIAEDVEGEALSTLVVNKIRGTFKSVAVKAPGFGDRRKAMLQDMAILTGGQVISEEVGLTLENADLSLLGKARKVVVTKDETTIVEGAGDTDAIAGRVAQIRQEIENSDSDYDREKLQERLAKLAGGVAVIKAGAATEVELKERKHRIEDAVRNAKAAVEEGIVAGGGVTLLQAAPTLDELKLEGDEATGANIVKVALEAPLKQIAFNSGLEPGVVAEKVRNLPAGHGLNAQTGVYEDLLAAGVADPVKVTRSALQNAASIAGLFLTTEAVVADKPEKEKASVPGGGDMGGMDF

No constants are given. Whether binding was seen depends on the method and setting. Binding seen in cells or lysates may run through a third protein. Some entries that bind do so weakly or less than the wild type. Sequences can lack the tags named with a protein.

B1: Mtb KdpE, M-PFC control fusion (protein, UniProt P9WGN1 1-226)
chain: MTLVLVIDDEPQILRALRINLTVRGYQVITASTGAGALRAAAEHPPDVVILDLGLPDMSGIDVLGGLRGWLTAPVIVLSARTDSSDKVQALDAGADDYVTKPFGMDEFLARLRAAVRRNTAAAELEQPVIETDSFTVDLAGKKVIKDGAEVHLTPTEWGMLEMLARNRGKLVGRGELLKEVWGPAYATETHYLRVYLAQLRRKLEDDPSHPKHLLTESGMGYRFEA
Take B1: the binding result is reported as “no binding”.

B2: Mtb Hip1 (Rv2224c), M-PFC prey fusion (enzyme, UniProt P9WHR3 31-520)
chain: CIRVVGGRARMAEPKLGQPVEWTPCRSSNPQVKIPGGALCGKLAVPVDYDRPDGDVAALALIRFPATGDKIGSLVINPGGPGESGIEAALGVFQTLPKRVHERFDLVGFDPRGVASSRPAIWCNSDADNDRLRAEPQVDYSREGVAHIENETKQFVGRCVDKMGKNFLAHVGTVNVAKDLDAIRAALGDDKLTYLGYSYGTRIGSAYAEEFPQRVRAMILDGAVDPNADPIEAELRQAKGFQDAFNNYAADCAKNAGCPLGADPAKAVEVYHSLVDPLVDPDNPRISRPARTKDPRGLSYSDAIVGTIMALYSPNLWQHLTDGLSELVDNRGDTLLALADMYMRRDSHGRYNNSGDARVAINCVDQPPVTDRDKVIDEDRRAREIAPFMSYGKFTGDAPLGTCAFWPVPPTSQPHAVSAPGLVPTVVVSTTHDPATPYKAGVDLANQLRGSLLTFDGTQHTVVFQGDSCIDEYVTAYLIGGTTPPSGAKC
On to B2, for which the binding entry is on record as “binds”.

B3: Mtb InhA, M-PFC control fusion (protein, UniProt P9WGR1 1-269)
chain: MTGLLDGKRILVSGIITDSSIAFHIARVAQEQGAQLVLTGFDRLRLIQRITDRLPAKAPLLELDVQNEEHLASLAGRVTEAIGAGNKLDGVVHSIGFMPQTGMGINPFFDAPYADVSKGIHISAYSYASMAKALLPIMNPGGSIVGMDFDPSRAMPAYNWMTVAKSALESVNRFVAREAGKYGVRSNLVAAGPIRTLAMSAIVGGALGEEAGAQIQLLEEGWDQRAPIGWNMKDATPVAKTVCALLSDWLPATTGDIIYADGGAHTQLL
As for B3, the binding result is listed as “no binding”.

The values above are taken from article PMC4022732.
